“Also recorded” adds a separate entry of the source. Not every detail of the peptide structures is certain; ends, links or a residue may be inferred. Bridges are numbered along the chain shown (N, C = ends). Where no end group is shown, it is not given here.
Experiments:
Assay type in all cases: biochemical
[1] = target: T1, activated protein C (Homo sapiens, UniProt P04070); test: Specificity assay, fraction of remaining proteolytic activity; details: for fraction of remaining proteolytic activity, activated protein C: 100 nM inhibitor, 7.6 nM enzyme
T1 construct: purchased Haematologic Technologies Inc. (Essex Jct., VT)
T1 sequence (P04070 43-197 limits assumed): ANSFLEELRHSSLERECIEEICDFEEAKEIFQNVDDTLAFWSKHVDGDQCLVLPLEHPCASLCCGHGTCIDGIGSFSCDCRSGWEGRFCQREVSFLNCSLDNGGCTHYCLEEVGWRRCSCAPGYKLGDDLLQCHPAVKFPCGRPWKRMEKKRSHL
T1 sequence (P04070 212-461 limits assumed): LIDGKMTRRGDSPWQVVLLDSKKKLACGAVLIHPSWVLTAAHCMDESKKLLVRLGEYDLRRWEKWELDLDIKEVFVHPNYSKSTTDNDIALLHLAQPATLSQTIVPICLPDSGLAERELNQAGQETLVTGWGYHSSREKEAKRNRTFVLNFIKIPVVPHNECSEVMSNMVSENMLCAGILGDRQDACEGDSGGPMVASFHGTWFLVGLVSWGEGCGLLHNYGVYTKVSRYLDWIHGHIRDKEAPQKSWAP

[2] = target: T2, plasmin (Homo sapiens, UniProt P00747); test: as above
T2 construct: Human plasmin, S-2302, S-2251, and S-2366 were purchased from Kabi Vitrum (Sweden); purchased Kabi Vitrum (Sweden)
T2 sequence (P00747 97-580 limits assumed): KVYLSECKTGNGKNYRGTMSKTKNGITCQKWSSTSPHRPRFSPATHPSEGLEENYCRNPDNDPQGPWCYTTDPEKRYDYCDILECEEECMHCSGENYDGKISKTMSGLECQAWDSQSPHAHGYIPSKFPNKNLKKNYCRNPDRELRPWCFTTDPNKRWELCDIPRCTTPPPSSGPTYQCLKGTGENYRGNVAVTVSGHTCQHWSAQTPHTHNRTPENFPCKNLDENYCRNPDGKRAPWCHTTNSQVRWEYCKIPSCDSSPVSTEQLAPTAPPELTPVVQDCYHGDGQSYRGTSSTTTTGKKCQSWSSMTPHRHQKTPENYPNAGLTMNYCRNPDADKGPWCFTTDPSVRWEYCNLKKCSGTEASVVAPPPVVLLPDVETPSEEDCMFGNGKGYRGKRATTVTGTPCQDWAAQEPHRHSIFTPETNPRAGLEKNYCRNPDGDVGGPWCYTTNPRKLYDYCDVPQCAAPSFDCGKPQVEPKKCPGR
T2 sequence (P00747 581-810 limits assumed): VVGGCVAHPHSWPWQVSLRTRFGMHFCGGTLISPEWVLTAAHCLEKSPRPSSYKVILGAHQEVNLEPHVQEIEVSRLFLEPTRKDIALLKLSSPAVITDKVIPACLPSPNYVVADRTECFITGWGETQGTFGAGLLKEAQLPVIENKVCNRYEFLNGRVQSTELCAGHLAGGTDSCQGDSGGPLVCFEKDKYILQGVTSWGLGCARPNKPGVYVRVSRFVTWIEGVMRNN

[3] = target: T3, TF-FVIIa (Homo sapiens, UniProt P08709); test: as above; details: for fraction of remaining proteolytic activity, TF·Factor VIIa: 100 nM inhibitor, TF 77 nM, FVIIa 14 nM
T3 construct: purchased Haematologic Technologies Inc. (Essex Jct., VT) for FVIIa; TF made in house; host or cells: TF1-243: E. coli
T3 sequence (P08709 61-212 limits assumed): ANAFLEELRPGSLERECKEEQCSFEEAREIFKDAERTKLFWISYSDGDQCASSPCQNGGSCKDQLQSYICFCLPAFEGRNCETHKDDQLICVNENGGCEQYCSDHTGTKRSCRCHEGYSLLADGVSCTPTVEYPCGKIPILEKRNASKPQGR
T3 sequence (P08709 213-466 limits assumed): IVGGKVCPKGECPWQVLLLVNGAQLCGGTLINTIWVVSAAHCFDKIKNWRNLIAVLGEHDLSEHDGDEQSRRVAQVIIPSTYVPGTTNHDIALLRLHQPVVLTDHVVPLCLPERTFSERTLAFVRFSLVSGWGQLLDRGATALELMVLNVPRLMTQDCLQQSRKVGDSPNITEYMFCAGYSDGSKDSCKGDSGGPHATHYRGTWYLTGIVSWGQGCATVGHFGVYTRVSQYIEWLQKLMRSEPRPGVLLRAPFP
T3 sequence (P13726 33-275 partner limits assumed): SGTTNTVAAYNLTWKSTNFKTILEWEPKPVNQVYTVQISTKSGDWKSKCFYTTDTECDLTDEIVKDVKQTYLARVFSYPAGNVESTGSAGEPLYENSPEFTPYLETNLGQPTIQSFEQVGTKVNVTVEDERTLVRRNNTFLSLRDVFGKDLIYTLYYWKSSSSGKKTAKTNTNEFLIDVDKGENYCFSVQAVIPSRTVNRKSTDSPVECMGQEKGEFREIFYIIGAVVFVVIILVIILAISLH

[4] = target: T4, thrombin (Homo sapiens, UniProt P00734); test: as above; details: for fraction of remaining proteolytic activity, thrombin: 100 nM inhibitor, 6.2 nM enzyme
T4 construct: purchased Haematologic Technologies Inc. (Essex Jct., VT)

[5] = target: T5, Factor XIIa (Homo sapiens, UniProt P00748); test: as above
T5 construct: purchased Enzyme Research Laboratories, Inc. (South Bend, Ind)
T5 sequence (P00748 20-372 limits assumed): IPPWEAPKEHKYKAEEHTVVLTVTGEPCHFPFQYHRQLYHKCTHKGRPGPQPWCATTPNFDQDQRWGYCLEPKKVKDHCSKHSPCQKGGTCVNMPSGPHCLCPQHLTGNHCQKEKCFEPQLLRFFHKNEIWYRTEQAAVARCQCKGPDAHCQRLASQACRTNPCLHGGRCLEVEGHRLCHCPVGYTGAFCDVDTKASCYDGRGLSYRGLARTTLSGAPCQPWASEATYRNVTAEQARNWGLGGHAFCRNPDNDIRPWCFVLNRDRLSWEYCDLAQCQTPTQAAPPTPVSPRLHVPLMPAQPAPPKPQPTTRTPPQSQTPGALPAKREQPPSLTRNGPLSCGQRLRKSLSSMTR
T5 sequence (P00748 373-615 limits assumed): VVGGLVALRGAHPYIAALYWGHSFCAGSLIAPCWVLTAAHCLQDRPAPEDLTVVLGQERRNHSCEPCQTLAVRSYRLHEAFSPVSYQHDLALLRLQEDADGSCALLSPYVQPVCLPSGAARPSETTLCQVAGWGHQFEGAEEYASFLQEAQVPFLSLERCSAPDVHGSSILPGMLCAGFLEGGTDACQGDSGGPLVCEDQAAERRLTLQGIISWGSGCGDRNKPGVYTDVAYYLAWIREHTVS

[6] = target: T6, Factor XIa (Homo sapiens, UniProt P03951); test: as above; details: 100 nM inhibitor; […] enzyme
T6 construct: purchased Haematologic Technologies Inc. (Essex Jct., VT)
T6 sequence (P03951 19-387 limits assumed): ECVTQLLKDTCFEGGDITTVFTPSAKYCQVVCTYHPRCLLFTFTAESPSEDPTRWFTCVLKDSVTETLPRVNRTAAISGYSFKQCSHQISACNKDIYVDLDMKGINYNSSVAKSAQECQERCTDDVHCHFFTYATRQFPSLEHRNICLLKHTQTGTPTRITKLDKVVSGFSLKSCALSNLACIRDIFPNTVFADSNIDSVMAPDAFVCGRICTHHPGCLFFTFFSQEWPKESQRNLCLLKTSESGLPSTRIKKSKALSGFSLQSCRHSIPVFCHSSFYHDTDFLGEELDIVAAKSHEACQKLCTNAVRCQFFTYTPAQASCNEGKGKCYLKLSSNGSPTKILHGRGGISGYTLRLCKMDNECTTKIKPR
T6 sequence (P03951 388-625 limits assumed): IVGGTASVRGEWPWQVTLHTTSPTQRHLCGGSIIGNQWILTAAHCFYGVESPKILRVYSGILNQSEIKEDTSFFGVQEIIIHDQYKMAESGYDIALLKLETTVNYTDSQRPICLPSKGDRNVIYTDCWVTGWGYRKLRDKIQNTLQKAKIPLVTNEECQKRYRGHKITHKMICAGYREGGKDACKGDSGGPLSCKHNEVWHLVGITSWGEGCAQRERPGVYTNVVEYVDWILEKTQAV

[7] = target: T7, plasma kallikrein (Homo sapiens, UniProt P03952); test: as above; details: 100 nM inhibitor; 3.5 nM enzyme
T7 construct: Human plasma kallikrein and Factor XIIa were purchased; purchased Enzyme Research Laboratories, Inc. (South Bend, Ind)
T7 sequence (P03952 20-390 limits assumed): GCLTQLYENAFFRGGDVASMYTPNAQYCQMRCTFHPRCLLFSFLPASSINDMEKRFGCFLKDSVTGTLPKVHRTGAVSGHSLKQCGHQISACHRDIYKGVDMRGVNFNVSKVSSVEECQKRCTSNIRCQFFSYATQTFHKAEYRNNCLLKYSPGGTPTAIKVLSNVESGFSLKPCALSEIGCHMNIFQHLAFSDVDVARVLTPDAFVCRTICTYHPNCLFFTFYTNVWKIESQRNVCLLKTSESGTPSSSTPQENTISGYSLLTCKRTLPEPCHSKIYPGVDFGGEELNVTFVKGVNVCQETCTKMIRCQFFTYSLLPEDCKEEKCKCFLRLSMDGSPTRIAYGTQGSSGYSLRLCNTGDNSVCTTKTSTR
T7 sequence (P03952 391-638 limits assumed): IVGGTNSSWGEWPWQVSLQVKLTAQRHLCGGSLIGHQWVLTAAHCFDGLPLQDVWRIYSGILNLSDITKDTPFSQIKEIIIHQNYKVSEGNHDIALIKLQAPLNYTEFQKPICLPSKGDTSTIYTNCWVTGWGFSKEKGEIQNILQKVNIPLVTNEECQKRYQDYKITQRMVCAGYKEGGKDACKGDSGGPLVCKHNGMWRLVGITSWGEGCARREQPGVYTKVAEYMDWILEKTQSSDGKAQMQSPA

[8] = tested on: intrinsic coagulation pathway; test: Activated partial thromboplastin time (APTT) clotting assay in normal human plasma
[9] = tested on: extrinsic coagulation pathway; test: Prothrombin time (PT) clotting assay initiated by TF membranes; details: normal human plasma

Compound	fraction of remaining proteolytic activity, activated protein C [1]	fraction of remaining proteolytic activity, plasmin ([2]; 100 nM inhibitor, 32 nM enzyme)	fraction of remaining proteolytic activity, TF·Factor VIIa [3]	fraction of remaining proteolytic activity, thrombin [4]	fraction of remaining proteolytic activity, Factor XIIa ([5]; 100 nM inhibitor, 14 nM enzyme)	fraction of remaining proteolytic activity, Factor XIa [6]	fraction of remaining proteolytic activity, plasma kallikrein [7]	inhibition of activated protein C [1]	inhibition of plasmin [2]	inhibition of TF-FVIIa [3]	prolongation of clotting time in APTT [8]	inhibition of thrombin [4]	inhibition of FXIIa [5]	prolongation of clotting time in PT [9]
CC(C)[C@H](N)C(=O)N[C@@H](CCCNC(=N)N)C(=O)N[C@@H](CCC(=O)O)C(=O)N[C@H](C(=O)N[C@H]1CSSC[C@@H](C(=O)NCC(=O)N[C@@H](CO)C(=O)N[C@@H](C)C(=O)O)NC(=O)[C@H](C(C)C)NC(=O)[C@H](C)NC(=O)[C@H](C)NC(=O)[C@@H]2CSSC[C@@H]3NC(=O)[C@H](CCCCN)NC(=O)CNC(=O)[C@H](CCC(=O)O)NC(=O)[C@H]([C@@H](C)O)NC(=O)[C@H](C(C)C)NC(=O)[C@H](CC(=O)O)NC(=O)[C@H](Cc4ccccc4)NC(=O)[C@H](Cc4ccc(O)cc4)NC(=O)[C@H](Cc4c[nH]c5ccccc45)NC(=O)[C@H](CCCNC(=N)N)NC(=O)[C@H](CO)NC(=O)[C@H](Cc4c[nH]cn4)NC(=O)[C@H](C)NC(=O)[C@H](C)NC(=O)[C@H](CCCNC(=N)N)NC(=O)[C@H](CSSC[C@H](NC(=O)CNC(=O)CNC(=O)[C@H](Cc4ccc(O)cc4)NC(=O)[C@H](C(C)C)NC(=O)[C@H](Cc4ccccc4)NC(=O)[C@@H]4CCCN4C(=O)[C@H](C)NC3=O)C(=O)NCC(=O)NCC(=O)N[C@@H](CC(N)=O)C(=O)N[C@@H](CCCNC(=N)N)C(=O)N[C@@H](CC(N)=O)C(=O)N[C@@H](CC(N)=O)C(=O)N[C@@H](Cc3ccccc3)C(=O)N[C@@H](CC(=O)O)C(=O)N[C@@H]([C@@H](C)O)C(=O)N[C@@H](CCC(=O)O)C(=O)N[C@@H](CCC(=O)O)C(=O)N[C@@H](Cc3ccc(O)cc3)C(=O)N2)NC(=O)[C@@H]2CCCN2C(=O)CNC(=O)[C@H]([C@@H](C)O)NC(=O)[C@H](CCC(=O)O)NC(=O)[C@H](C)NC(=O)[C@H](CCC(N)=O)NC(=O)[C@H](CCC(=O)O)NC(=O)[C@H](CO)NC1=O)C(C)C [KALI-42]	0.71	0.04	0.97	0.99	0.97	0.04	0.00							
VREVCSEQAEDGHCRAAHPRWYFDVTEGKCAPFYYGGCGGNRNNFDTEEYCAAVCGSA (disulfide 5-55, 14-38, 30-51) [KALI-DY]	0.99		0.86	0.86		0.03	0.00	did not inhibit	did not inhibit	did not inhibit	prolonged the clotting time in the APTT; also recorded: significantly more effective than either APPI; also recorded: prolonged the clotting time of the surface mediated contact activation pathway in a concentration dependent manner	did not inhibit	did not inhibit	did not prolong the clotting time; also recorded: but not the PT; also recorded: neither KALI-DY, BPTI, nor APPI appreciably prolonged the clotting time

— patent US5786328A, “Use of kunitz type plasma kallikrein inhibitors” (Genentech, Inc., priority 1995, dated 1998)
